Our source for the self-cleavage values is the RNAGym collection of RNA variant scans (doi:10.7554/elife.90254).

Read counts are not given, so values of variants with three or more changes are uncertain.

The chains are these.
B1: LINE1-mini (parent)
chain: GGCAGAGCUCAACACAGCGUGGCAAAGUGGCUGUGGCUAGACUGCC

This data set covers variants of B1. Nature of the data set: self-cleavage, relative activity (ratio to wild type); higher = more cleavage; in vitro, sequencing; the parent is a self-cleaving ribozyme.
A14C A16U A24U: the self-cleavage worked out at 0.04.
Then C13U G21A U28C U38A, with 0.42.
Under C13U U34C G36C stands 0.04.
Then C13U C15U G30A U43C, with 0.18; and C13U C31U C37U U38C G44A, with 0.01.
As for C13U U20A G22A C23U C31A C37U, the self-cleavage was 0.01.
Under C13U G21A A26C stands 0.69; under C13U C37G C42A, 0.06; under C13U G19C A39U, 0.13.
Under C13U G22A A41C stands 0.04; under C13G U20C A26G A39C, 0.04.
Then C13U C15A G27A, with 0.03; and C13U U20C G36U, with 0.03; and C13U U20A C46A, with 0.53.
With C13G G36U C46A, the self-cleavage turned out to be 0.2.
In the case of C13U G19C A26C G40U, the self-cleavage turned out to be 0.02.
Then C13G U20G U38G C46A, with 0.01; and C13U A16C A24G C45U, with 0.03.
Then C13U U34C G36A C46G, with 0.06; and C13U A16U G21A, with 0.06; and C13U G17C G21A, with 0.04.
Under C13U G27U U32C stands 0.07; under C13U G22C G40C, 0.03; under C13U G36U C46U, 0.04.
For C13G G27C U43C, the self-cleavage is 0.06.
Then C13G U28G C42U, with 0.11; and C13G G21U G22A G36A U38C C45U, with 0.32.
Then C13U C37U U38C A41G, with 0.13; and C13U G29U C37G G44U, with 0.09.
For the variant C13U C18A C23U G40A, the self-cleavage came to 0.03.
With C13G G17C G29C, the self-cleavage was 0.11.
On to C13U G33U A41U, for which the self-cleavage came to 0.07.
Under A14C A16G G29A C31U stands 0.04; under A14C A16C U34A A39C, 0.02.
Then C13U A14U C18U A24C U28G, with 0.02.
Under C13U G17A C31G stands 0.06; under C13U U34G G35C, 0; under C13U A24C G29U U38A, 0.05.
For C13G U20A G21A G40A, the self-cleavage came to 0.11.
For C13U C31G G35U, the self-cleavage was found to be 0.24.
For the variant C13G G21U U34G, the self-cleavage was 0.03.
Under C13U C18U C46A stands 0.07.
Under C13U A14G C23U A25C stands 0.09; under C13U A16U U20C A26U A41C, 0.11.
Consider C13U C23G U32A A41U, for which the self-cleavage worked out at 0.
Then C13U A16G A26C C46U, with 0.09; and C13U A16U G29U U34G, with 0.02; and C13G G29A C42G, with 0.02.
Consider C13G U20A A26G U32A C42A, for which the self-cleavage amounted to 0.02.
On to C13U G30C C37U C45U, for which the self-cleavage was 0.11.
Then C13U G30C C31A, with 0.09.
Then A14C A16C G19C U32G, with 0.03; and C13U A14C G36A, with 0.49.
Then C13U G19U C46U, with 0.02; and A14C A24C G29U G44C, with 0.06; and C13U G17A C46U, with 0.06.
Regarding C13U G21A U28C C37U G40U C42G C46U, the self-cleavage is 0.03.
Then C13U G35A C37A, with 0.05; and C13U A41G C42A, with 0.07.
Under C13U A25U G35U stands 0.29.
Under C13U G17A U20A C23U U38A stands 0.03.
Regarding C13G G35C U38C G44U, the self-cleavage is 0.24.
Under C13U C23U A25G C31G G35U G40A stands 0.04.
Then C13U G17U C23U G30C U38C A39G, with 0.16; and C13U A14G C37G, with 0; and C13U A14U C18G G36C, with 0.18.
Then C13U A16U G33C A39U, with 0.02.
For C13U U32C C42A, the self-cleavage was determined as 0.22.
Then C13U G21U U38G, with 0.
Under C13G G17U A24C stands 0.02; under C13U C15G C23U C46G, 0.01; under C13U G17C C23U A26G, 0.04.
Under C13U C15A C23A U38A stands 0.01; under C13U G17C C46A, 0.05.
C13U C15U U38G G40U: the self-cleavage was found to be 0.01.
Under C13U G21C G35U stands 0.12; under C13U G21A A24C G36C, 0.04.
On to C13U U28A G30A C31U, for which the self-cleavage came out at 0.05.
Then C13U U28G U32A A39G U43A, with 0.02.
Under C13U U20C U28A G44C stands 0.02; under C13U G30C U32A C37A, 0.03; under C13G G19A A25U, 0.06.
Under C13U C15U A16G G21U U32A stands 0.06; under C13U G40C C42G, 0.05; under C13U C15G U20G, 0.01.
As to C13U C23A A39G, the self-cleavage was determined as 0.1.
Under C13U C18G G21C C37G stands 0.01.
Then C13U A14U A25U C42U, with 0.07; and C13U G17C A26U, with 0.02; and C13U A14U A16C G30C, with 0.13.
As to C13U G21U A24U, the self-cleavage is 0.1.
With C13G G27C G29A U43C, the self-cleavage turned out to be 0.09.
For C13U A16G C18A G27U U34C, the self-cleavage was 0.01.
For the variant C13U A25G C42G, the self-cleavage amounted to 0.03.
Then C13U G17C C31A, with 0.02; and C13U G30C C42U, with 0.06; and C13U G19A A25C U32C G33A A41U C42A, with 0.09.
Then C13U A14U A26C G33A U34G C37U A39C C42A, with 0.03; and C13U A25G G30C G35C C45A, with 0.03.
Under C13U C18U C23A G44A stands 0.03; under C13U G22U A25U, 0.11; under C13U A14G G40A, 0.07.
Regarding A14C A16U U32G U34C G40A, the self-cleavage was determined as 0.03.
With C13G G29U C42G, the self-cleavage amounted to 0.
Under C13U U38G A39U stands 0.04; under C13G G27A G30U, 0.01.
Then C13G G27C G35U, with 0.41; and C13G U20A G35U, with 0.05.
For the variant C13U G21U G33C, the self-cleavage stood at 0.04.
Under C13U C15A G17A stands 0.01.
Regarding C13U C15A G17U, the self-cleavage turned out to be 0.04.
Then C13U G30A C31U, with 0.03; and C13U G17C G30U, with 0.02; and C13U G29A G33C G36A A41U C42A, with 0.03.
Then C13G G27U G36C G40A, with 0.04; and C13U U20G G22C, with 0.06.
Under C13U C18G G19U U20C A24G U28C stands 0.01; under A14C A16C U28A, 0.07.
Take C13U A14C C23A A25G: the self-cleavage was 0.03.
With C13U C23G U28A, the self-cleavage was determined as 0.04.
Then C13U G17C C37U, with 0.07; and A14C A16U C46A, with 0.02; and C13G G17A G21U, with 0.04.
Under C13U C23A G35U G36U G40A C46A stands 0.19; under C13G G17U G21C, 0.07.
Then C13U G29U C37U, with 0.23; and C13U C15G U28G C45A, with 0.01; and C13G G22U G29A A39U G40A, with 0.02.
C13G G19C G29A: the self-cleavage worked out at 0.26.
As for C13U G17C A41U, the self-cleavage is 0.03.
Under C13U C18U C42U stands 0.03.
Then C13U C31U U32G, with 0.24; and C13U A16G G19A G30C, with 0.03; and C13U A14U G35U, with 0.23.
Under C13U G19A G35C stands 0.11.
As to C13U U20C A25G C46A, the self-cleavage was determined as 0.03.
Under C13U A26G G29C C46G stands 0.03; under C13G G19U C46U, 0.32.
Then C13U G22U U34A, with 0.02; and C13U G22U U34G, with 0; and C13G G21U C37A, with 0.1.
Then C13G G29U G30C G33C, with 0.21; and C13G U43C C45U, with 0.04.
On to C13G G19U G33A U34G C42U U43C, for which the self-cleavage turned out to be 0.01.
Then C13U A16C U28C G33A, with 0.05.
Under C13U G33U G40A C45A stands 0.06; under C13U A25U C31G A39C, 0.03; under C13U A25C G29A G44U, 0.06.
As for C13U A14C C18G C46U, the self-cleavage was 0.03.
C13U U20A C23U A24U C37U C42U: the self-cleavage is 0.15.
Then C13U G29A G36U, with 0.31.
Then C13G U20A G29C C42G, with 0.04; and C13G U43A C45U, with 0.04.
Then C13G G22C G27C G29C C31U U43C, with 0.01.
On to C13U G17A G22A C31U G35U, for which the self-cleavage is 0.04.
Then C13U A26U C31U, with 0.09; and C13G G19C A24C G35A C37U, with 0.02.
Under C13U G19U U20C G21C A26U G33A C46A stands 0.04; under C13U C15G U20G G22C G27C C37A, 0.01.
Under C13U G33C C42U stands 0.02; under C13G G17U C31U, 0.02.
For the variant C13G U20A G27U G30A G36U, the self-cleavage was 0.09.
Under C13U A14U G30A G40U stands 0.39; under A14C A24G A26U G33U G40C, 0.02.
Under C13U G17U A41U C42A stands 0; under C13U G30U G35C, 0.03; under C13G G30C C37G U38A C45U, 0.2.
